Data: the RNAGym collection of RNA variant scans (doi:10.7554/elife.90254)
Read counts are not given, so values of variants with three or more changes are uncertain.

B1: OR4K15 (parent)
chain: GUUAACGGUCAUAGGCCAUGGAAACUAGGAGCACCAUUUCGCUGCCAGUGAAGAAAUGAACAAAGAAAAUCUGGGCCAGGCAGGCAUCAAAAGAAAUAGUCUUGCGCUCAACCAGAAAGUCUGUAAUCAUUUUAAGGGUA

Variants of: B1
Experiment: self-cleavage, relative activity (ratio to wild type); higher = more cleavage; in vitro, sequencing; the parent is a self-cleaving ribozyme
GUUAAAGGUCAUAGGCCAUGGAAACUAGGAGCACCAUUUCGCUGCCAGUGAAGAAAUGAACAAAGAAAAUCUGGGCCAGGCAGGCGUCAAAAGAAAUAGUCUUGCGCCCAACCAGAAAGUCUGUAAUCAUUUUAAGGGUA [C6A A86G U108C] showed a self-cleavage of 0.01.
Work on GUUAUCGGUCAUAGGCCAUGGAAACUAGGAGCACCAUUUCGCUGCCAGUGAAGAAAUGAACAAAGAAAAACUGGGCCAGGCAGGCAUCAAAAGAAAUAGUCUUGCGCUCAACCAGGAAGUCCGUAAUCAUUUUAAGGGUA [A5U U70A A116G U122C] yielded a self-cleavage of 0.21.
Work on GUUAAAGGUCAUAGGCCAUGGAAACUGGGAGCACCAUUUCGCUGCCAGUGAAGAAAUGAGCAAAGAAAAUCUGGGCCAGGCAGGCAUCAAAAGAAAUAGUCUUGCGCUCAACCAGAAAGUCUGUAAUCAUUUUAAGGGUA [C6A A27G A60G] yielded a self-cleavage of 0.86.
With GUUAUCGGUCAUAGGCCAUGGAAACUAGGAGCACCAUUUCGCUGCCAGUGAAGAAAGGAACAAAGAAAAUCUGGGCCAGGCAGGCAUCAAAAGAAAUAGUCUUGCGCUCAACCAGAAAGCCUGUAAUCAUUUUAAGGGUA [A5U U57G U120C] the self-cleavage was 1.24.
GUUAAAGGUCGUAGGCCAUGGAAACUGGGAGCACCAUUUCUCUGCCAGUGGAGAAAUGAACAAAUAAAAUCUGGGCCAGGCAGGCAUCAAAAGAAAUAGUCUUGCGCACAACCAGAAAGUCUGUAAUCAUUUUAAGGGUA [C6A A11G A27G G41U A51G G65U U108A] gave a self-cleavage of 0.01.
Variant GUUAUCGGUCAUAGGCCAUGGAAACUAGGAGCACCAUUUCGCUGCCAGAGAAGAAAUGAACAAAGAAAAUCUGGGCCAGGCAGGCAUCGAAAGAAAUAGUCUUGCGCUCAACCAGAAAGUCUGCAAUCAUUUUAAGGGUA [A5U U49A A89G U124C] has a self-cleavage of 0.64.
GUUAAAGGUCAUGGGCCAUGGAAACUAGGAGCACCAUUUCGCUGCCAGUGAAGAAAUGAACAAAGAAAAUCUGGGCCAGGCAGGCAUCAAAAGAAAUAGUCUUGCGCUCAACCAGAAAGUCUGUAAUCAUCUUAUGGGUA [C6A A13G U131C A135U] gave a self-cleavage of 1.07.
In the case of GUUAAAGGUCAUAGGCCAUGGAAACUAGGAGCACCAUUUCGCUGCCAGUGAAGGAAUGAACAAAGAAAACCUGGGCCAGGCAGGCAUCAAAAGAAACAGUCUUGCGCUCAACCAGAAAGUCGGUAAUCAUUUUAAGGGUA [C6A A54G U70C U97C U122G], the self-cleavage is reported as 0.09.
GUUAUCGGUCAUAGGCCAUGGAAACUAGGAGCACCAUUUCGCUGCCAGAGAAGAAAUGAACAAAGAAAAUCUGGGCCAGGCAGGCAUCAAAAGAAAUAGUCUUGCGCUCAAUCAGAAAGUCUGUAAUCAUUUUAAGGGUA [A5U U49A C112U] gave a self-cleavage of 0.08.
For GUUAUCGGUCAUAGGCCAUGGAAACUAGGAGCACCAUCUCGCUGCCAGUGAAGAAAUGAACAACGAAAAUCUGGGCCAGGCAGGCAUCAAAAGAAAUAGUCUUGCGCUCAACCAGAAAGUCUGUAAUCAUUUUAAGGGUA [A5U U38C A64C], the self-cleavage was 1.07.
For GUUAUCGGUCAUAGGCCAUGGAAACUAGGAGCACCAUUUCGCUGCCAGUGAAGAAAUGAACAAAGAAAAUCUGGGCCAGGCAGGCACCAAAAGAAGUAGUCUUGCGCUCAACCAGAGAGUCGGUAAUCAUUUUAAGGGUA [A5U U87C A96G A117G U122G], the self-cleavage was 0.31.
GUUAAAGGUCAUAGGCCAUGGAAACUAGGAGCACCAUUUCGCUGCCAGUGAAGAGAUGAACAAAGAAAACCUGGGCCAGGCAGGCAUCGAAAGAAAUAGUCUUGCGCCCAACCAGAAAGUCUGUAAUCAUUUUAAGGGUA [C6A A55G U70C A89G U108C] gave a self-cleavage of 0.03.
GUUAAAGGUCAUAGGCCUUGGAAACUAGGAGCACCAUUUCGCUGCCAGUGAAGAAAUGAACAAAGAAAAUCUGGGCCAGGCAGGCAUCAAAAGAAAUAGUCUUGCGCUCAACCAGAAAGUCUGUAGUCAUUUUAAGGGUA [C6A A18U A126G] showed a self-cleavage of 0.89.
Variant GUUAUCGGUCAUAGGCCAUGGAAACUAGGAGCACCAUUUCGCUGCCAGUGAAGAAAUGAACAAAGAAAAUCUGGGCCAGGCAGGCAUCAAAAGAAAUAGUCCUGCGCUCAACCAGUAAGUCUGUAAUCAUUUUAAGGGUA [A5U U102C A116U] has a self-cleavage of 0.4.
Work on GUUAAAGGUCGUAGGCCAUGGAAACUAGGAGCACCAUUUCGCUGCCAGCGAAGAAAUGAACAAAGAAAAUCUGGGCCAGGCAGGCAUCAAGAGAAAUAGCCUUGCGCUCAACCAGAAAGUCUGUAAUCAUUUUAAGGGUA [C6A A11G U49C A91G U100C] yielded a self-cleavage of 1.41.
Work on GUUAUCGGUCAUAGGCCAUGGAAACUAGGAGCACCAUUUCGCUGCCAGUGAAGAAACGGACAAAGAAAAUCUGGGCCAGGCAGGCAUCAAAAGAAAUAGUCUUGCGCUCAACCAGAAAGUCUGUAAUCAUUUUAAGGGUA [A5U U57C A59G] yielded a self-cleavage of 0.89.
Variant GUUAUCGGUCAUAGGCCAUGGAAACUAGGAGCACCAUUCCGCUGCCAGUGAAGAAAUGAACAAAGAUAAUCUGGGCCAGGCAGGCAUCAAAAGAAAUAGUCUUGCGCUCAACCAGAAAGUCUGUAAUCAUCUUAAGGGUA [A5U U39C A67U U131C] has a self-cleavage of 1.49.
In the case of GUUAAAGGUCAUAGGCCAUGGAAACUAGGAGCACCAUUUCGCUGCCAGUGAAGAAAUGAACAAAGAAAAUCUGGGCCAGGCGGGCAUCAAUAGAAAUAGUCUUGCGCUCAACCAGAAAGCCUGUACUCAUUUUAAGGGUG [C6A A82G A91U U120C A126C A140G], the self-cleavage is reported as 0.
With GUUAUCGGUCAUAGGCCAUGGAAACUAGGAGCACCAUUCCGCUGCCAGUGGAGAAAUGAACAAAGAAAAUCUGGGCCAGGCAGGCAUCAAGAGAAAUAGUCUUGCGCUCAACCAGAAAGCCUGUAAUCAUUUUAAGGGUA [A5U U39C A51G A91G U120C] the self-cleavage was 0.92.
Work on GUUAUCGGUCAUAGGCCAUGGAAACUAGGAGCACCAUUCCGCUGCCAGUGAAGAAAUGAACAAAGAAAAUCUGGGCCAGGCAGGCACCAAAAGAAAUAGUCUUGCGCUCAACCAGAAAGUCUGUAAUCAUUUUAAGGGUA [A5U U39C U87C] yielded a self-cleavage of 1.25.
GUUAUCGGUCAUAGGCCAUGGAAACUAGGAGCACCAUUUCGCUGCCAGUGAAGAAAUGAACAAAGAAAAUCUGGGCCAGGCAGGCACCAAAAGAAAUAGUCUUGCGCUCAGCCAGAGAGUCUGUAAUCAUUUUAAGGGUA [A5U U87C A111G A117G] gave a self-cleavage of 0.02.
